In all, about 16,000 sequences were measured (“Z-score”: median about -0.37, highest 2% from about 3.1 on). The list shows a part of the results.
What follows are sequences tested on RBM10 RRM1-ZnF-RRM2 (GST-tagged construct) (assay: RNAcompete 7-mer binding Z-score; higher = stronger binding preference).
Experimental: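 RNAcompete: 20 pmol GST-tagged RBM10 RNA-binding constructs were incubated with a designed RNA pool of about 241,000 sequences up to 41 nt (1.5 nmol) on glutathione beads for 30 min at 4 °C and washed. Bound RNAs were identified by microarray hybridisation. Each RNA 7-mer is scored by a one-sided Z-score of its enrichment, computed over probes that contain the 7-mer within longer pool sequences.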

Sequence | RNAcompete 7-mer binding Z-score
UGGCAAG | 1.1
UGAUACA | 0.0459
ACUAUGG | 0.698
UCCACCC | -0.617
CCUCGGA | -0.639
ACUACAA | -0.581
ACUCAGU | -0.661
UAGUUUU | -0.581
GGAUGAU | 1.38
GGCAUCA | 0.439
CUUCAAA | -0.73
CAAUCUU | -0.872
UUCUGCC | -0.948
CGCAAGU | -0.562
GACCCAG | -0.541
CAGGUGC | 1.24
GAUGCGU | 0.0932
UUAUUAA | -0.701
ACCACUU | -0.781
CACACCU | -0.581
GCGGCGG | 2.05
CUUUUAA | -0.814
UUUCAUU | -0.632
GUGCAUC | -0.278
AUUCUUG | -0.785

Sequence | RNAcompete 7-mer binding Z-score
CCCCGCA | -0.679
CCGUUUC | -0.923
UUUUCGA | -0.621
AACUCUC | -0.799
GGUUCGG | 1.44
UCUUUUC | -0.73
UUGUUGU | -0.384
UACUUCG | -0.697
GUGAAUA | 0.399
AAUUCAU | -0.351
GGGACAG | 2.88
CAGCCGA | -0.719
UGAAAAC | -0.431
GUCCGAG | -0.0306
CUCUAGU | -0.799
GCCGGUU | -0.293
UACCUCG | -0.675
CGUUGUG | 0.0495
CACGAGU | -0.0889
CUGGCCA | -0.65
CUAAAUC | -0.828
CGCUUUA | -0.908
GCUCUCA | -0.526
CCCGUUA | -0.621
UAAUUCC | -0.81

Sequence | RNAcompete 7-mer binding Z-score
CCCCCAU | -0.362
CCCACCA | -0.632
CUUUCUA | -0.821
GCCGGCA | -0.369
CUGUUCA | -0.865
CUGUGGU | 0.213
AGGGGCG | 2.07
AUAUGCG | 0.0969
UUGCUGU | -0.548
UGUAGGU | 1.89
CUAGGCU | -0.606
UUAGGGC | 1.22
ACCACGC | -0.672
CUGUUAU | -0.85
UUAGAUC | -0.453
AUUACGC | -0.264
ACGGGGG | 3.19
CCCGAAA | -0.839
UUAACUU | -0.752
GUGGCUA | 1.16
UGAGAAA | 0.337
GCAUGGC | 0.253
CUCACCU | -0.912
CGCACUU | -0.978
GAGCAGG | 2.84

Sequence | RNAcompete 7-mer binding Z-score
ACGCCCC | -0.715
GAUCAUG | 0.392
ACAUCAG | -0.191
UUAGUAU | -0.296
UCUAACC | -0.737
CGGAGCU | 0.275
AAAAACG | 0.0969
CGAGCAG | 1.09
AGAGCUU | -0.741
UAAUUAU | -0.624
CAUUACG | -0.147
GAGCUUU | -0.708
AACGAAU | -0.333
UAAAUAU | -0.428
UCAUUUA | -0.752
UCAAAUU | -0.744
GAUAGGA | 3.17
CAUUUCU | -0.872
GCAGUUC | -0.595
AAUGUUG | 0.184
CGCCAGU | -0.559
CUAAAGC | -0.628
AGCGACU | -0.46
AGCAGAU | 0.272
CGAUCUG | -0.795

Sequence | RNAcompete 7-mer binding Z-score
CAAUCCU | -0.887
GAGUAAG | 1.54
AAGUGGU | 1.6
AGAGUUU | -0.0379
GGUCUGU | 0.0823
UGUGGUU | 1.03
CGGGUUU | 1.01
UAACCUC | -0.679
UCUCCUA | -0.879
CUUCCGG | -0.635
CGAGUUC | -0.69
GGGCGUG | 2.84
AGUAUCG | -0.00512
GUUACCA | -0.0707
CUGAACA | -0.795
GAACUUA | -0.566
CGAAGUU | -0.235
CUAAGAG | -0.103
UGUCCCC | -0.464
GCACUAU | -0.504
AAGGACA | 3.12
AUCUUGA | -0.785
UGCUACU | -0.69
GCCUUGC | -0.788
UCGGCGC | 0.024

Sequence | RNAcompete 7-mer binding Z-score
UGACACG | 0.0859
AUAGCGG | 1.03
GAUGAAG | 2.32
UUAAUAG | -0.53
AUUCCUA | -0.81
CUCUGCA | -0.832
UGGUCGA | 0.65
CGAGCUU | -0.723
GACGCUU | -0.992
UCGGAAA | 0.392
GUAAUCU | -0.457
UGGACUG | 0.84
GAAAGAG | 1.42
UACGGCA | 0.348
AGCUCAU | -0.897
UUUCAUC | -0.664
AGCUUCU | -0.908
AAAGCUU | -0.504
AGUCUGU | -0.482
GAGGCUA | 0.192
UUGGGGU | 2.84
AUGGGCU | 1.51
UUUUUAC | -0.766
CGGAUCG | 0.53
UCUCCCA | -0.697

Sequence | RNAcompete 7-mer binding Z-score
UCGACUG | -0.581
GUAUGGA | 2.44
AUGGGAU | 3.25
GCGGUAA | 1.01
CUGCUGC | -0.639
GAAAAAC | 0.0677
ACGGGAU | 1.88
ACCAACA | -0.358
CACUUCC | -0.868
UCGUGCG | -0.027
UGGUCUU | -0.632
GGCUUAC | -0.548
GUGGCGC | 1.46
GAGGCUG | 0.727
UUAAAUC | -0.65
AGAAACU | -0.592
ACUCAGG | 0.0349
GCAACUC | -0.697
AAGUAAC | 0.0932
UGCCCCC | -0.464
GCAACGA | 0.0677
AGGCAAU | 0.701
AAGGAUA | 2.92
CUAGGGU | 2
CCCGACC | -0.952

Sequence | RNAcompete 7-mer binding Z-score
UCGAUGC | -0.38
UUCUUCG | -0.708
GCAUGUG | 0.734
CUAUUAA | -0.828
GCUGUAC | -0.453
CGCAGAU | -0.5
AUCGGAC | -0.107
CUCAAAU | -0.832
CAUAGUU | -0.577
AAAAGUG | 0.833
AACUCUG | -0.828
GCGACGA | 0.101
AUAACAA | -0.176
UAUUGUG | -0.169
CGUUUUU | -0.781
GGCCCGA | -0.537
AUACUAA | -0.471
CAGGUGU | 1.13
GGGAGCC | 0.891
AACUGUU | -0.646
GGUGCGA | 1.58
AUAUCGC | -0.573
UGGCGAG | 1.73
GCUAAAA | -0.0634
AUGUUGG | 0.913

Sequence | RNAcompete 7-mer binding Z-score
UAUAUGU | -0.358
ACGCGCA | -0.446
CGCCGGC | -0.668
AGAAACA | -0.107
GCAAUCG | -0.125
GGGCUUG | 1.02
UGCUUAG | -0.22
CUUUCAC | -0.868
ACUAAGG | 1.05
UUACUCU | -0.766
UUUUCGU | -0.792
CCAUACU | -0.854
UGCUGUG | -0.333
ACGUUCG | -0.584
AUACAUU | -0.602
AGUGAUG | 0.8
AAUUAUG | -0.158
GGGUUCG | 1.77
AAGGCGC | 0.982
CCACAGG | 0.0932
GUUAAGA | 0.37
UGCUGGA | 0.217
GCUAAAU | -0.337
GUGCCCU | -0.621
ACGCACG | -0.522

Sequence | RNAcompete 7-mer binding Z-score
UUUCGCG | -0.719
AGCGUUC | -0.562
CUCAACC | -0.734
CUGAGAG | -0.0525
CGGCACG | 0.308
AUAUCUC | -0.792
CUCCCGA | -0.857
CACUAAG | -0.267
CCACAAA | -0.606
AUGGAAG | 3.16
GCACAAU | -0.246
UUGUUCA | -0.628
GAAGCGG | 2.32
CGACCAA | -0.475
AUCAAAC | -0.424
CUCGACC | -0.868
AGCCGCU | -0.854
GAUUGUC | -0.606
CUCUCCU | -0.697
GGCCGAU | -0.0998
GAGUUCA | -0.315
CGAAAGA | -0.0634
GAGUCAG | 0.705
GGUAGGC | 2.65
AGAUGCU | -0.777

Sequence | RNAcompete 7-mer binding Z-score
AUAGACC | -0.475
ACAGCGG | 1.21
UCAUUGG | -0.0525
UGCGAUC | -0.657
UGAUUCU | -0.704
GGGAGAG | 2.53
CGCUCGC | -0.661
ACGGUAG | 1.21
UCGACGC | -0.635
GGCCCCC | -0.286
UCCAGUC | -0.715
CCUUAUG | -0.854
AGCUAAG | -0.165
ACGCUUU | -0.865
ACCGGUC | -0.588
UCUACAU | -0.675
GACGGGG | 2.79
GUAACAC | -0.0525
CCCGACA | -0.69
GGACACU | 0.0422
CGGGAAA | 2.26
ACGGAAC | 0.785
AUAAGCC | -0.777
CUUGUCG | -0.737
GGGCCGG | 1.34

Sequence | RNAcompete 7-mer binding Z-score
CAGCGGU | 0.406
UGGUGCU | 0.694
AUCACCU | -0.876
AGCAUGG | 1.8
GUCCACC | -0.726
GUUCUAC | -0.759
ACACCAU | -0.555
UAAGCGC | -0.508
CGGUGAA | 0.723
GUAGCUG | 0.25
AACAUCA | -0.562
AAUAACA | -0.264
AUAACGG | 0.891
CUCCUGC | -0.774
CGCCGAG | -0.573
AUCCUCG | -0.832
GCAACCU | -0.643
GUUGCCA | -0.446
UCGCUCC | -0.664
GCCCUAC | -0.704
CCACAGU | -0.413
UGUCGCG | -0.446
CUGUGGC | -0.129
UCCCCAG | -0.315
UCGUACG | -0.122

Sequence | RNAcompete 7-mer binding Z-score
GAUACUC | -0.701
CCCCACA | -0.65
CUGACAU | -0.537
UCACCUU | -0.945
GAGAAAU | 0.41
GCCGUUU | -0.901
CGACCAG | -0.216
GGUGCCC | 0.0495
CUGACCA | -0.632
UUCGGAC | -0.289
AGAAAGG | 4.73
GUAAGGG | 3.65
GGUUUGU | 0.811
CGGCAAG | 0.497
AGACAGU | -0.158
ACCCGGA | -0.551
CCGAUGC | -0.701
UUUGAGG | 0.352
UUCGGGA | 0.734
AACGACA | -0.253
UCGUUUU | -0.508
AAAUGUC | -0.533
CAAAGAC | -0.227
CCGAGUG | 0.0167
GCCGGGC | -0.195

Sequence | RNAcompete 7-mer binding Z-score
GGCGGUU | 1.23
UUUGGCA | -0.264
AGUACGU | -0.0233
UGCAGGC | 0.596
GGUAGAG | 3.68
GUAGUCC | -0.402
CCCUCUU | -0.89
UAGGUGC | 1.12
UUCGGUC | -0.446
GUUGGUC | 0.308
UUCGGUU | -0.129
GACGUAC | -0.26
ACUGAGC | -0.122
UAGGCUG | 0.523
UUGGGCG | 2.45
GAGUCAU | -0.0561
UGGGCGG | 3.38
AGCAGCA | -0.0962
UUGAAGG | 1.9
AUGGUGU | 1.97
UCAGUUG | -0.315
CACUGCC | -0.595
GUUCCCU | -0.664
GUGAUAC | 0.275
AUAAGGC | 0.854

Sequence | RNAcompete 7-mer binding Z-score
ACUAUCC | -0.905
CGUAAUC | -0.511
GUAAACA | 0.374
CGCCUGC | -0.595
CCUAAGC | -0.901
GCCAACG | 0.0896
GUGGAUG | 2.35
GUAAUUA | -0.351
AGUCGUC | -0.125
GGGAUCC | 1.24
AGGAUAG | 2.21
AGCACGU | -0.176
UGAUUUC | -0.836
GAUGGAC | 1.76
GUGCCUG | -0.26
CGCCGAC | -0.734
AGCACAA | -0.322

— the supplement of paper PMC5499739
